This is an account of results in PMC7819943, “Rice protein-binding microarrays: a tool to detect cis-acting elements near promoter regions in rice”.

The list shows a part of the results.

The experiment deals with T1, OsWOX13 (Oryza sativa, UniProt Q5QMM3 1-267).
T1 sequence: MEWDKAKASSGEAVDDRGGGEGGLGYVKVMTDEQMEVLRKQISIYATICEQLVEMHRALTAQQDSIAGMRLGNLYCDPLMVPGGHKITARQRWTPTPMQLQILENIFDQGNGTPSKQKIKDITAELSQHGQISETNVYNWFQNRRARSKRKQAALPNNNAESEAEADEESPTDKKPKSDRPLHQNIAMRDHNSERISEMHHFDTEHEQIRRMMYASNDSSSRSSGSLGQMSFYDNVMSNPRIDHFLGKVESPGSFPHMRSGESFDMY
Briefly: protein-binding microarray (RPBM); PBS, 2% BSA, 51.3 ng/ul salmon testes DNA, 50 uM zinc acetate, 200 nM TF, 25 C, 1 h; high values mean tight binding. Conditions: protein: recombinant; tags: N-terminal polyhistidine and DsRed monomer fusion (pET32a); label: CyDye5-dUTP incorporated in the synthesized complementary strand; 3' TTTTT single-stranded linker to array surface; dsDNA, one strand shown. The method in brief:
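Ni–NTA purification followed expression in E. coli BL21-CodonPlus of transcription factors fused N-terminally to a polyhistidine tag and DsRed. At 200 nM in PBS with 2% BSA, salmon testes DNA and 50 µM zinc acetate, the protein was incubated for 1 h at 25 °C with a custom Agilent array that had been primer-extended with Cy5-dUTP and blocked with 2% BSA. After washing, the array was read on an Axon 4000B scanner. The binding signal is per-feature fluorescence intensity in arbitrary units.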
As for “TTATTAGCGCATGATTAATTAAGTACCCGTCCGTTCCAAACGGAGTCACCTAGTGCAG”, the binding signal is 5370 fluorescence intensity (a.u.). In the case of “TAAAACTGATATGTCACATTAGTATTAATATTAGAAGCAGCGGAGTCACCTAGTGCAG” it was 11400 fluorescence intensity (a.u.); in that of “TAAATTTAAAGCAATTTAACTTTAATTAAAGTTTAAATAACGGAGTCACCTAGTGCAG”, 19800 fluorescence intensity (a.u.); in that of “TCTTGCTATTATAACTCCAATCAAACTACGAATTCTGGTACGGAGTCACCTAGTGCAG”, 3450 fluorescence intensity (a.u.). For “TTTAGATAGATAAGTAAGCAGTGAGCTACCTAGCTAGCTACGGAGTCACCTAGTGCAG”, the binding signal is 4460 fluorescence intensity (a.u.). For “TTTAACAAATGATTTTACTCATTCATCGTGTGACACATCCCGGAGTCACCTAGTGCAG” the value was 11100 fluorescence intensity (a.u.); for “AGTAATTATATCACATTGCTTTTAGATTCAAACAGCAACACGGAGTCACCTAGTGCAG”, 19500 fluorescence intensity (a.u.); for “ACAGTAAGTACAAGTTTCAATCAACCTGAGATAAACTTTTCGGAGTCACCTAGTGCAG”, 3340 fluorescence intensity (a.u.). On to “AATCTAATTATCGTTTAGAAACCTGAGGATTATTAAATTTCGGAGTCACCTAGTGCAG”, for which the binding signal is 8980 fluorescence intensity (a.u.). For the sequence “CGGGTTTGATTTGATTTGATTTTGATTTTGATTTGCTTCTCGGAGTCACCTAGTGCAG”, the binding signal is 53400 fluorescence intensity (a.u.). As to “CTGACTGGTGACGCCTGTTGATAACCGTAGATACGCTTGCCGGAGTCACCTAGTGCAG”, the binding signal was 3680 fluorescence intensity (a.u.). In the case of “GTATTAATCAAACATCAGTCAAACTGTTGTGGCAGCCGCACGGAGTCACCTAGTGCAG”, the binding signal is 11000 fluorescence intensity (a.u.).

As for “CTAAATTGCAGTCCCAGTAGCGACTGCAGCTGATCCGGATCGGAGTCACCTAGTGCAG”, the binding signal is 10900 fluorescence intensity (a.u.). As for “AAAATATATTCAATTATTGATTTGATGCCACTAATTCAGTCGGAGTCACCTAGTGCAG”, the binding signal is 23600 fluorescence intensity (a.u.).

Regarding “TCTGTAATTATATCAGGTTGCTCTTGAACTATGCAGTCAGCGGAGTCACCTAGTGCAG”, the binding signal was 16900 fluorescence intensity (a.u.). Regarding “ATCAATCAAAATCAATAAAGCTAGCGCACTAGGATTACACCGGAGTCACCTAGTGCAG”, the binding signal was 11200 fluorescence intensity (a.u.). For “CGTCTATCAAATTGCGAAACCAGATAAAACGTGTAAGCTTCGGAGTCACCTAGTGCAG” the value was 4610 fluorescence intensity (a.u.); for “GATCCTTTGATTAAACACAACTAACTTCCACGTTGCATATCGGAGTCACCTAGTGCAG”, 6320 fluorescence intensity (a.u.).

As for “GCAAAATTTTAGCAATTACTTACAAATAACCGATCTAAAACGGAGTCACCTAGTGCAG”, the binding signal was 12000 fluorescence intensity (a.u.).

With “AATGTAATTACTTCTAATGCTATAGAGAGCTACTTCTACTCGGAGTCACCTAGTGCAG”, the binding signal is 19900 fluorescence intensity (a.u.). Regarding “GTCTGACAGGACAGTGGCGACCCAATCCCCAATCTCCATTCGGAGTCACCTAGTGCAG”, the binding signal is 8460 fluorescence intensity (a.u.). On to “CCATCAAATCCCAATCTAACAATTGTGATTCAACGTATGTCGGAGTCACCTAGTGCAG”, for which the binding signal was 4340 fluorescence intensity (a.u.). As for “TTTTAATTATATGGTAGACGCATACGCACACACCTCTACGCGGAGTCACCTAGTGCAG”, the binding signal was 25000 fluorescence intensity (a.u.). As to “TAGAATAAAGTAATTTGATTTGAATACAAAGTCGAATTAACGGAGTCACCTAGTGCAG”, the binding signal was 8180 fluorescence intensity (a.u.). Regarding “TCCTGGATAAACTCATGGTAAATTGACTAATGCTAATGTTCGGAGTCACCTAGTGCAG”, the binding signal was 8090 fluorescence intensity (a.u.). Regarding “CTGCAAAGAAGATTGGCTGTCCATGGAATCATGGATGATTCGGAGTCACCTAGTGCAG”, the binding signal is 5830 fluorescence intensity (a.u.). As to “AATAAATTTTATAACTCACATATACTATTTATCATGTAGTCGGAGTCACCTAGTGCAG”, the binding signal was 11300 fluorescence intensity (a.u.). Turning to “CAATCTGACCATCAAATCAAATCAAATCAATGGCAAACACCGGAGTCACCTAGTGCAG”, the binding signal was 4790 fluorescence intensity (a.u.). For the sequence “CCGACAGCTAGTGATTAGGAGGCGGTGGCTAGTGGTGGCGCGGAGTCACCTAGTGCAG”, the binding signal is 4380 fluorescence intensity (a.u.). Take “TCTCAAATTAAGTGTAGCCATGATAATCCGTGTCCAACGTCGGAGTCACCTAGTGCAG”: the binding signal was 3160 fluorescence intensity (a.u.).

Take “ACACTCATTCTGCTCTTAATTAATGTGCAAACAGTTTGCTCGGAGTCACCTAGTGCAG”: the binding signal is 6830 fluorescence intensity (a.u.). As to “CAGGTAAACAAATTAGTTTCTCCTCTTAAAAGCTTAATTTCGGAGTCACCTAGTGCAG”, the binding signal is 4680 fluorescence intensity (a.u.). Turning to “ATGAAATTGTCGGAATGTAACGAAATTTTGTGTTACGTTCCGGAGTCACCTAGTGCAG”, the binding signal is 4190 fluorescence intensity (a.u.). For “CAAATTGAAAATGCAATCGATCCAACAGGAAGCAACCACCCGGAGTCACCTAGTGCAG”, the binding signal is 4000 fluorescence intensity (a.u.). In the case of “TAAAACTAACATGTATAGTAGATTGGCTATAAGTTTATCCCGGAGTCACCTAGTGCAG” it was 6400 fluorescence intensity (a.u.); in that of “CATTGTCATCCTGAGTAGATTGCCAATTATATGGGTTTGGCGGAGTCACCTAGTGCAG”, 6170 fluorescence intensity (a.u.). Regarding “CCAAGAAATTACTGCTAGCGATTGAACATTTCACGTCAGACGGAGTCACCTAGTGCAG”, the binding signal was 4830 fluorescence intensity (a.u.). Consider “AAAACTTAATTGAGAACACAGCTCAATCTAGCTGATAAAACGGAGTCACCTAGTGCAG”, for which the binding signal is 22800 fluorescence intensity (a.u.). As to “GAAGATAGATGAATTGTCTGCCTTGCTTGCTGAAGCGATGCGGAGTCACCTAGTGCAG”, the binding signal was 11600 fluorescence intensity (a.u.).

In the case of “AGCTAATTGCTACACTTTGACCTGTCATCAATCTTTGGATCGGAGTCACCTAGTGCAG”, the binding signal was 29600 fluorescence intensity (a.u.). As for “AATAATTGTGCTCACAACGTGACAATTAGCAGCCAGTGTTCGGAGTCACCTAGTGCAG”, the binding signal is 27700 fluorescence intensity (a.u.). On to “TCCAACGATTATAAATGATTGTGATGTACAGTGTTGCTTTCGGAGTCACCTAGTGCAG”, for which the binding signal was 13800 fluorescence intensity (a.u.).
